This is one part of the list. Shown are side measurements of this screen, not its main read-out; they come without a call.
Experiments:
Test in all cases: Primary Screen for Target Class Profiling of Small Molecule Inhibitors of Methyltransferases
[1] = molecular target: Glycine N-methyltransferase (Homo sapiens) (UniProt Q14749); details: purified enzyme, MTase-Glo SAH luminescence; measured here: GNMT inhibition; at 40 µM; stronger effect = lower value
Procedure, shortened: (§1)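 Each enzyme was assayed with SAM and its substrate. SAH formation detected by MTase-Glo luminescence; single-point 40 uM screen[…].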

[2] = molecular target: Guanidinoacetate N-methyltransferase (Homo sapiens) (UniProt Q14353); details: purified enzyme, MTase-Glo SAH luminescence; measured here: GAMT inhibition; at 40 µM; stronger effect = lower value
Procedure, shortened: as §1

[3] = molecular target: Histamine N-methyltransferase (Homo sapiens) (UniProt P50135); details: purified enzyme, MTase-Glo SAH luminescence; measured here: HNMT inhibition; at 40 µM; stronger effect = lower value
Procedure, shortened: as §1

[4] = molecular target: Nicotinamide N-methyltransferase (Homo sapiens) (UniProt P40261); details: purified enzyme, MTase-Glo SAH luminescence; measured here: NNMT inhibition; at 40 µM; stronger effect = lower value
Procedure, shortened: as §1

[5] = molecular target: Phenylethanolamine N-methyltransferase (Homo sapiens) (UniProt P11086); details: purified enzyme, MTase-Glo SAH luminescence; measured here: PNMT inhibition; at 40 µM; stronger effect = lower value
Procedure, shortened: as §1
% is set by controls: 0 for no effect and ±100 for the full control effect.

CC1(C(=O)NC2CCCCCCC2)Cn2c(cc3sccc32)C(=O)N1CC1CCCO1 (stereo not given)
activity change, negative = inhibition [1]: 3.59%
activity change, negative = inhibition [2]: -1.6%
activity change, negative = inhibition [3]: 7.52%
activity change, negative = inhibition [4]: 4.46%
activity change, negative = inhibition [5]: 2.34%

Cc1nn2c(c1-c1ccnn1C(C)C)N(Cc1ccc3c(c1)CCO3)CCC2
activity change, negative = inhibition [1]: -3.38%
activity change, negative = inhibition [2]: 1.93%
activity change, negative = inhibition [3]: -0.157%
activity change, negative = inhibition [4]: -25.7%
activity change, negative = inhibition [5]: 0.416%

CCC1c2ccc(C)n2CCN1C(=O)Nc1ccc(OC)cc1OC (stereo not given)
activity change, negative = inhibition [1]: -0.769%
activity change, negative = inhibition [2]: 0%
activity change, negative = inhibition [3]: -1.6%
activity change, negative = inhibition [4]: 6.58%
activity change, negative = inhibition [5]: 3.48%

Cc1cc(-c2nn(-c3ccccc3F)cc2CN(C)C(C)c2ccon2)c(C)s1 (stereo not given)
activity change, negative = inhibition [1]: -2.29%
activity change, negative = inhibition [2]: -0.105%
activity change, negative = inhibition [3]: 0.968%
activity change, negative = inhibition [4]: -5.56%
activity change, negative = inhibition [5]: -2.36%

CC1CCCCN1CCN1C(=O)c2ccc(-c3ccco3)n2CC1(C)C(=O)NC1CCCCCCC1 (stereo not given)
activity change, negative = inhibition [1]: -0.239%
activity change, negative = inhibition [2]: 4.96%
activity change, negative = inhibition [3]: -0.481%
activity change, negative = inhibition [4]: -9.48%
activity change, negative = inhibition [5]: -1.56%

COc1ccccc1-c1nnc2n(Cc3ccc(F)cc3)c(=O)c3ccccc3n12
activity change, negative = inhibition [1]: -1.03%
activity change, negative = inhibition [2]: 0.34%
activity change, negative = inhibition [3]: 3.5%
activity change, negative = inhibition [4]: 0.097%
activity change, negative = inhibition [5]: 2.89%

Cn1cc(CN2CCN3C(=O)N(C4CCCCC4)C[C@H]3C2)cn1
activity change, negative = inhibition [1]: -1.92%
activity change, negative = inhibition [2]: -2.85%
activity change, negative = inhibition [3]: -1.58%
activity change, negative = inhibition [4]: -2.4%
activity change, negative = inhibition [5]: -6.33%

CSc1ccc(CCNC(=O)Cn2ccc3cc(S(=O)(=O)N4CCCCC4)ccc32)cc1
activity change, negative = inhibition [1]: -7.12%
activity change, negative = inhibition [2]: -4.66%
activity change, negative = inhibition [3]: -3.07%
activity change, negative = inhibition [4]: -11.1%
activity change, negative = inhibition [5]: -7.46%

O=C(NC1(c2ccccc2)CC1)c1c(CN2CCC(N3CCCCC3)CC2)c(-c2cccc(C(F)(F)F)c2)nc2cc(Br)ccc12
activity change, negative = inhibition [1]: 0.275%
activity change, negative = inhibition [2]: -12.9%
activity change, negative = inhibition [3]: -16.6%
activity change, negative = inhibition [4]: -34.5%
activity change, negative = inhibition [5]: -22.3%

CC1CCN(S(=O)(=O)c2ccc3c(ccn3CCC(=O)NC(C)c3ccccc3)c2)CC1 (stereo not given)
activity change, negative = inhibition [1]: 3.64%
activity change, negative = inhibition [2]: 0%
activity change, negative = inhibition [3]: 0.349%
activity change, negative = inhibition [4]: 1.26%
activity change, negative = inhibition [5]: -1.48%

CCc1cc2c(cc3n2CC(C)(C(=O)NC2CCCCC2)N(Cc2ccc(C)cc2)C3=O)s1 (stereo not given)
activity change, negative = inhibition [1]: -5.17%
activity change, negative = inhibition [2]: -0.634%
activity change, negative = inhibition [3]: 1.21%
activity change, negative = inhibition [4]: -0.035%
activity change, negative = inhibition [5]: -3.76%

Nc1nc(NCCNc2ncc(-n3ccnc3)c(-c3ccc(Cl)cc3Cl)n2)ccc1[N+](=O)[O-]
activity change, negative = inhibition [1]: -2.09%
activity change, negative = inhibition [2]: 0.546%
activity change, negative = inhibition [3]: 4.22%
activity change, negative = inhibition [4]: -53.4%
activity change, negative = inhibition [5]: -1.55%

Cn1c(=O)c2ccc(C(=O)NC3CCCC3)cc2n2c(=O)n(Cc3cccc(F)c3)nc12
activity change, negative = inhibition [1]: -0.383%
activity change, negative = inhibition [2]: 1.99%
activity change, negative = inhibition [3]: -7.38%
activity change, negative = inhibition [4]: -2.99%
activity change, negative = inhibition [5]: -0.452%

O=C1N(c2ccccc2)c2ccccc2C12CCN([S+](=O)([O-])c1cccc(C(F)(F)F)c1)C2 (stereo not given)
activity change, negative = inhibition [1]: -6.07%
activity change, negative = inhibition [2]: -5.02%
activity change, negative = inhibition [3]: -2.39%
activity change, negative = inhibition [4]: -10.3%
activity change, negative = inhibition [5]: 8.26%

CC1CCC2(C(=O)OC3OC(COC4OC(CO)C(O)C(O)C4O)C(O)C(O)C3O)CCC3(C)C(=CCC4C5(C)CCC(O)C(C)(C(=O)O)C5CCC43C)C2C1(C)O (stereo not given)
activity change, negative = inhibition [1]: 3.88%
activity change, negative = inhibition [2]: 1.4%
activity change, negative = inhibition [3]: 4.97%
activity change, negative = inhibition [4]: -11.2%
activity change, negative = inhibition [5]: -4.74%

CC(C)S(=O)(=O)N[C@H]1CCOC[C@@H]1c1ccc(-c2ccc(C#N)s2)cc1
activity change, negative = inhibition [1]: -0.646%
activity change, negative = inhibition [2]: -3.49%
activity change, negative = inhibition [3]: 9.72%
activity change, negative = inhibition [4]: -10.6%
activity change, negative = inhibition [5]: 1.94%

CCCn1ncc(CN2CCC(Cc3cccc(C(F)(F)F)c3)(C(=O)OCC)CC2)c1C
activity change, negative = inhibition [1]: 0.547%
activity change, negative = inhibition [2]: 1.24%
activity change, negative = inhibition [3]: -3.69%
activity change, negative = inhibition [4]: -14%
activity change, negative = inhibition [5]: 1.12%

CC1C(=O)OCC2=CCN3CCC(OC(=O)C(C)(O)C1(C)O)C23 (stereo not given)
activity change, negative = inhibition [1]: -2.18%
activity change, negative = inhibition [2]: -2.41%
activity change, negative = inhibition [3]: 4.89%
activity change, negative = inhibition [4]: -12.2%
activity change, negative = inhibition [5]: -10.1%

COc1ccc(-c2cc3n(n2)CC(C)(C(=O)NCc2ccccc2)N(CCCOC(C)C)C3=O)cc1 (stereo not given)
activity change, negative = inhibition [1]: 1.42%
activity change, negative = inhibition [2]: 1.15%
activity change, negative = inhibition [3]: 5.23%
activity change, negative = inhibition [4]: 2.83%
activity change, negative = inhibition [5]: -1.78%

CC1(C)[C@H]2CC[C@@H](CNC(=O)c3cncc(Br)c3)[C@@H]1C2
activity change, negative = inhibition [1]: -4.12%
activity change, negative = inhibition [2]: 3.77%
activity change, negative = inhibition [3]: -1.18%
activity change, negative = inhibition [4]: -11.3%
activity change, negative = inhibition [5]: -7.84%

CC1(C(=O)NC2CCCCCCC2)Cn2c(cc3sccc32)C(=O)N1Cc1cccnc1 (stereo not given)
activity change, negative = inhibition [1]: -15.1%
activity change, negative = inhibition [2]: -0.261%
activity change, negative = inhibition [3]: -3.82%
activity change, negative = inhibition [4]: -4.15%
activity change, negative = inhibition [5]: -3.8%

CCS(=O)(=O)N1CC(CC#N)(n2cc(-c3ncnc4[nH]ccc34)cn2)C1
activity change, negative = inhibition [1]: 3.76%
activity change, negative = inhibition [2]: 6.68%
activity change, negative = inhibition [3]: 7.84%
activity change, negative = inhibition [4]: -14.6%
activity change, negative = inhibition [5]: -13%

CC(=O)Nc1c2n(c3ccc(C)cc13)CC(C)(C(=O)NC1CCCCCC1)N(C1CCCC1)C2=O (stereo not given)
activity change, negative = inhibition [1]: -2.86%
activity change, negative = inhibition [2]: -0.188%
activity change, negative = inhibition [3]: 1.42%
activity change, negative = inhibition [4]: -1.16%
activity change, negative = inhibition [5]: -4.14%

Cc1noc(C)c1C(=O)N1CCC2(CC1)CN(C(=O)Cc1cccc(Cl)c1)CCO2
activity change, negative = inhibition [1]: -2.19%
activity change, negative = inhibition [2]: -0.348%
activity change, negative = inhibition [3]: 1.68%
activity change, negative = inhibition [4]: -4.95%
activity change, negative = inhibition [5]: -5.29%

CCCn1c(=O)c2ccc(C(=O)NC3CCCCC3)cc2n2c(=O)n(CC(=O)NC(C)(C)C)nc12
activity change, negative = inhibition [1]: 5.08%
activity change, negative = inhibition [2]: 1.51%
activity change, negative = inhibition [3]: 11.4%
activity change, negative = inhibition [4]: 6.09%
activity change, negative = inhibition [5]: 7.42%

CSC(=N)N
activity change, negative = inhibition [1]: 5.32%
activity change, negative = inhibition [2]: 11%
activity change, negative = inhibition [3]: 0.337%
activity change, negative = inhibition [4]: -5.27%
activity change, negative = inhibition [5]: 6.39%

CNC(=O)[C@@H](C1CC1)N1CCC[C@H]1C(=O)N1CCC(C)CC1
activity change, negative = inhibition [1]: -3.72%
activity change, negative = inhibition [2]: -7.05%
activity change, negative = inhibition [3]: -1.88%
activity change, negative = inhibition [4]: -11.8%
activity change, negative = inhibition [5]: -4.09%

COc1ccc(C(=O)OC2C3C=COC(OC4OC(CO)C(O)C(O)C4O)C3C3(CO)OC23)cc1OC (stereo not given)
activity change, negative = inhibition [1]: 0%
activity change, negative = inhibition [2]: -1.45%
activity change, negative = inhibition [3]: -5.85%
activity change, negative = inhibition [4]: -14.2%
activity change, negative = inhibition [5]: 1.23%

CC(C)C1c2cccn2CCN1C(=O)Nc1cccc(C(F)(F)F)c1 (stereo not given)
activity change, negative = inhibition [1]: -2.71%
activity change, negative = inhibition [2]: 4.53%
activity change, negative = inhibition [3]: -5.89%
activity change, negative = inhibition [4]: -6.17%
activity change, negative = inhibition [5]: -0.296%

CC(C)CCn1c(=O)c2ccc(C(=O)NCC(C)C)cc2n2c(=O)n(Cc3c(F)cccc3Cl)nc12
activity change, negative = inhibition [1]: 5.49%
activity change, negative = inhibition [2]: 0.617%
activity change, negative = inhibition [3]: 7.4%
activity change, negative = inhibition [4]: 4.78%
activity change, negative = inhibition [5]: 5.21%

From PubChem BioAssay AID1745853 (National Center for Advancing Translational Sciences (NCATS), 2022)
